Where two headings read alike, the source gives them in different places.
Tests used:
hIL-1R-I [1] = biological target: T1, hIL-1R-I (Homo sapiens, UniProt P14778); assay: Biacore affinity/kinetic analysis of His6-tagged Z variants, human IL-1R-I; assay type: binding
T1 construct: purchased R&D Systems 269-1R/CF
T1 sequence (P14778 18-569): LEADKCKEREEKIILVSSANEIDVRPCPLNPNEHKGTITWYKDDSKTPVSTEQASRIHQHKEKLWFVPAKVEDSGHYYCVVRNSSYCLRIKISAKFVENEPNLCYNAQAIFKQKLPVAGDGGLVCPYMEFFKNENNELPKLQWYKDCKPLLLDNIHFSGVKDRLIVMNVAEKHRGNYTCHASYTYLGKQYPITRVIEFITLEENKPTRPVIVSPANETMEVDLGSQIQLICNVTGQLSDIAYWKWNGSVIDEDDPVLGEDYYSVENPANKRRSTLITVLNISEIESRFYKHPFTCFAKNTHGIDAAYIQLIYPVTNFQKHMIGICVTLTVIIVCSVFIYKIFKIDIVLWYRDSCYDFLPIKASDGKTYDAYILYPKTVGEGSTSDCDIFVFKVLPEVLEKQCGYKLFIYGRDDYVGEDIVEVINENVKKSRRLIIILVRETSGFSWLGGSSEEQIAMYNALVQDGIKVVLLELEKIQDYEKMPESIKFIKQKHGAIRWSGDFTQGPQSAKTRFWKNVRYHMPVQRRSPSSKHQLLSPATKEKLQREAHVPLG

cynomolgus IL-1R-I = assay: Biacore affinity/kinetic analysis of His6-tagged Z variants, cynomolgus IL-1R-I; assay type: binding
Description: Affinities (KD) for human and cynomolgus IL-1R-I were determined for His6-tagged Z variants using a Biacore 2000 instrument (GE Healthcare). hIL-1R-I or cIL-1R-I-His6 was immobilized on the carboxylated dextran layer in different flow cells of a CM5 chip (GE Healthcare, cat. no. BR100012). The immobilization was performed using amine coupling chemistry according to the manufacturer's protocol. Acetate pH 4.5 (GE Healthcare, cat. no. BR100350) was used for ligand dilution and HBS-EP (GE Healthcare, cat. no. BR100188) was used as running buffer. One flow cell surface on the chip was activated and deactivated for use as blank during analyte injections. In the kinetic experiment, HBS-EP was used as running buffer, the flow rate was 50 μl/min and the temperature was 25° C. The analytes, i.e. the Z variants, were each diluted in HBS-EP buffer to final concentrations of 40 nM and 10 nM, and were injected over the target chip surfaces for 2 min, followed by dissociation in running buffer for 8 min. Kinetic constants were calculated from the obtained sensorgrams using a 1:1 binding model, in the BiaEvaluation software 4.1 (GE Healthcare).
The kinetic constants (kon and koff) and affinities (KD) for human and cynomolgus IL-1R-I were determined for His6-tagged Z variants using a Biacore 2000 instrument (GE Healthcare). The experiment was run essentially as described in Example 2, using 100, 10 and 1 nM of the Z variants. The analyte injection time was 3 min followed by 15 min dissociation and 2×5 s glycine pH 3.0 (GE Healthcare, cat. no. BR100357), supplemented with 0.5 M NaCl, was used for regeneration of the surfaces between the cycles. Kinetic constants were calculated from the obtained sensorgrams of two or three concentrations of the respective Z variant, using a 1:1 binding model in the BiaEvaluation software 4.1 (GE Healthcare). His6-tagged Z12967 was included in the assay for comparison.
The kinetic constants (kon and koff) and affinities (KD) for human and cynomolgus IL-1R-I were determined for His6-tagged Z variants using a Biacore 2000 instrument (GE Healthcare). The experiment was run essentially as described in Example 5, using 48, 12, 3 and 0.75 nM of the Z variants. The analyte injection time was 3 min followed by 6 min dissociation and 2×5 s glycine pH 3.0, supplemented with 0.5 M NaCl, was used for regeneration of the surfaces between the cycles. Kinetic constants were calculated from the obtained sensorgrams of three or four concentrations of the respective Z variant, using a 1:1 binding model in the BiaEvaluation software 4.1 (GE Healthcare). His6-tagged Z12967 (SEQ ID NO:9), Z16065 (SEQ ID NO:268), Z16163 (SEQ ID NO:359) and Z18557 (SEQ ID NO:1205) were included in the assay for comparison.

TF-1 cells = assay: In vitro IL-1β neutralization assay (TF-1 cell assay); assay type: cell-based
[2] = Circular dichroism (CD) spectroscopy analysis, melting temperature and refolding; assay type: physicochemical; settings: for Melting temperatures (Tm): His6-tagged Z variants, CD variable temperature measurement
hIL-1R-I-Fc = biological target: T2, hIL-1R-I-Fc (Homo sapiens, UniProt P14778); assay: EC50 analysis of Z variants by ELISA target titration; assay type: binding; settings: periplasmic Z-ABD; hIL-1R-I-Fc 100 to 0.01 nM; first matured library (Example 4)
T2 construct: purchased Creative BioMart IL1 RI-771H

hIL-1R-I [3] = biological target: T1, hIL-1R-I; assay: Biacore kinetic screening of Z-ABD periplasmic extracts captured on anti-ABD antibody; assay type: binding; settings: Z-ABD periplasmic extracts captured on anti-ABD antibody, single concentration of hIL-1R-I, Table 18
Description: The binding of Z variants to human IL-1R-I was analyzed in a kinetic screening using a Biacore T200 instrument. A polyclonal goat anti-ABD antibody (goat anti-ABD) was immobilized on CM5 chip surfaces basically as described for other proteins in Example 2. For the kinetic screening, analytes were injected in two steps. First, a Z-ABD (ABD001, SEQ ID NO:1660) periplasmic extract was injected over the surface at 5 μl/min for 1 min. As a second step, 100 nM hIL-1R-I was injected at 30 μl/min for 2 min, followed by 2 min of dissociation in running buffer HBS-EP. Glycine-HCl pH 2.0 (cat. no. BR100355, GE Healthcare) was used for regeneration of the antibody surfaces between the cycles. The temperature of the assay was 25° C. Before performing the kinetic analyses, the signal from 100 nM hIL-1R-I injected over a reference surface containing goat anti-ABD but no Z-ABD sample was subtracted from the sensorgram of Z-ABD binding to hIL-1R-I. Rough screening affinities (KD) were calculated from the reference subtracted 100 nM hIL-1R-I response using a 1:1 binding model of the BiaEvaluation software 4.1 (GE Healthcare). […]
The binding of Z variants to human IL-1R-I was analyzed in a kinetic screening, using a Biacore 2000 instrument, essentially as described in Example 4, but with the exception that Z-ABD (ABD001, SEQ ID NO:1660) periplasmic extracts were injected during 2 min. […]

[4] = His6-Z polypeptides, 100, 10 and 1 nM (Example 5), read-out: KD
[5] = His6-tagged, 48, 12, 3 and 0.75 nM, comparison variants (Example 9), read-out: KD to human IL-1R-I
[6] = His6-tagged, TF-1 cell assay (Example 5)
[7] = His6-tagged, TF-1 cell assay, comparison variants (Example 9)
[8] = His6-Z polypeptides, 100, 10 and 1 nM (Example 5)
[9] = His6-Z polypeptides binding to human IL-1R-I, Biacore, Table 19
[10] = His6-Z polypeptides binding to human IL-1R-I, Biacore, Table 19, read-out: KD
[11] = His6-tagged (Example 9), read-out: KD of cynomolgus IL-1R-I binding
[12] = His6-Z polypeptides, IL-1β inhibition in TF-1 cell assay, Table 20 (Example 9)

T2 sequence (P14778 with tags, fused parts or gaps limits assumed): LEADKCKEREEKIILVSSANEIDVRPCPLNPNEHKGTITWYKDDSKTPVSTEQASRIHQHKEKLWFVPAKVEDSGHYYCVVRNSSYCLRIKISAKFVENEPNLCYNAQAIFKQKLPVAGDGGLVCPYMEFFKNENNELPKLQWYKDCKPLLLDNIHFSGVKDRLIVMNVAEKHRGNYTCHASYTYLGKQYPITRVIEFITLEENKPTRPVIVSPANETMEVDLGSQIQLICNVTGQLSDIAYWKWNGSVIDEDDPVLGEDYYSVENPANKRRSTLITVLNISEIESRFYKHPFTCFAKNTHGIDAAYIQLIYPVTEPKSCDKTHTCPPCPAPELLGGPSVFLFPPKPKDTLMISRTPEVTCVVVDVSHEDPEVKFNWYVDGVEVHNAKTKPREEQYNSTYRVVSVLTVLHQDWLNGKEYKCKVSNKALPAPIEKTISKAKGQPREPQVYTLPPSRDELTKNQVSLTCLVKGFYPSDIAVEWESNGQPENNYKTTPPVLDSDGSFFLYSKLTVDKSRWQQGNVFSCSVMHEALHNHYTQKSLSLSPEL

With “Z12967: IL-1R-I binding Z variant (VDAKYAKEAHRAQMEIFALPNLTRRQYTAFIRKLLDDPSQSSELLSEAKKLNDSQAPK; Engineered IL-1R-I binding polypeptide)” the Kd (hIL-1R-I [1]; [4]) was 0.51 nM, the Kd (hIL-1R-I [1]; His6-Z polypeptides, Biacore 2000, 25° C., 40 nM and 10 nM (Example 2), read-out: Human IL-1R-I KD) was 1.2 nM and the Kd (hIL-1R-I [1]; [5]) was 0.82 nM. For the same substance, the Kd (cynomolgus IL-1R-I; His6-tagged Z variant, Biacore 2000 (Example 2), read-out: affinity (KD) to cynomolgus IL-1R-I) was 35 nM, the IC50 (TF-1 cells; His6-Z polypeptides, 0.6 nM IL-1β, 72 h (Example 2)) was 1.1 nM and the IC50 (TF-1 cells; [6]) was 5.2 nM. The IC50 (TF-1 cells; [7]) was 7.4 nM and the “Tm (° C.)” value ([2]; His6-tagged Z variants 0.5 mg/ml in PBS, 221 nm, 20 to 90° C. (Example 2)) was 58 °C.
With “Z15840: IL-1R-I binding Z variant (VDAKYAKEVEVAQMEIFALPNLTRKQYTAFIRKLLDDPSQSSELLSEAKKLNDSQAPK; Engineered IL-1R-I binding polypeptide)” the EC50 (hIL-1R-I-Fc) was 0.25 nM and the Kd (hIL-1R-I [3]) was 6.9 nM.
For “Z18557: IL-1R-I binding Z variant with valine in position 12 (VDAKYAKEIEAVQMEIFYLPNLTRKQYTAFIRKLFDDPSQSSELLSEAKKLNDSQAPK; Engineered IL-1R-I binding polypeptide)”, the “koff” value (hIL-1R-I [1]; [8]) was 0.00067 s⁻¹, the “kon” value (hIL-1R-I [1]; [8]) was 4.4e+06 M⁻¹ s⁻¹ and the Kd (hIL-1R-I [1]; [4]) was 0.15 nM. It also gave a Kd (hIL-1R-I [1]; [5]) of 0.14 nM, a Kd (cynomolgus IL-1R-I; His6-tagged (Example 5), read-out: KD against cynomolgus IL-1R-I) of 7.6 nM and an IC50 (TF-1 cells; His6-Z polypeptides, IL-1β inhibition in TF-1 cell assay, Table 12 (first matured library)) of under 0.5 nM. For the same substance, the IC50 (TF-1 cells; [6]) was under 0.5 nM, the IC50 (TF-1 cells; [7]) was 0.6 nM and the “Melting temperatures (Tm)” value ([2]; Table 13) was 60 °C.
In the case of “Z18754: IL-1R-I binding Z variant (VDAKYAKEVEEIQMEIFRLPNLTRRQYTAFIRKLLDDPSQSSELLSEAKKLNDSQAPK; Engineered IL-1R-I binding polypeptide)”, the koff (hIL-1R-I [1]; [9]) is reported as 0.006 s⁻¹, the kon (hIL-1R-I [1]; [9]) is reported as 7e+07 M⁻¹ s⁻¹ and the Kd (hIL-1R-I [1]; [10]) is reported as 0.086 nM. For the same substance, the Kd (cynomolgus IL-1R-I; [11]) was 2 nM, the IC50 (TF-1 cells; [12]) was 0.6 nM and the “Melting temperatures (Tm)” value ([2]; Table 21) was 63 °C.
With “Z18760: IL-1R-I binding Z variant (VDAKYAKETEAVQMEIFALPNLTRRQYTAFIRKLLDDPSQSSELLSEAKKLNDSQAPK; Engineered IL-1R-I binding polypeptide)” the koff (hIL-1R-I [1]; [9]) was 0.0027 s⁻¹, the kon (hIL-1R-I [1]; [9]) was 1.3e+07 M⁻¹ s⁻¹ and the Kd (hIL-1R-I [1]; [10]) was 0.21 nM. For the same substance, the Kd (cynomolgus IL-1R-I; [11]) was 6.7 nM, the IC50 (TF-1 cells; [12]) was 0.9 nM and the “Melting temperatures (Tm)” value ([2]; Table 21) was 57 °C.
For “Z18800: IL-1R-I binding Z variant (VDAKYAKEIEEIQMEIFRLPNLTRRQYTAFIRKLLDDPSQSSELLSEAKKLNDSQAPK; Engineered IL-1R-I binding polypeptide)”, the koff (hIL-1R-I [1]; [9]) was 0.0025 s⁻¹, the kon (hIL-1R-I [1]; [9]) was 1.8e+07 M⁻¹ s⁻¹ and the Kd (hIL-1R-I [1]; [10]) was 0.14 nM. The Kd (cynomolgus IL-1R-I; [11]) was 3.3 nM and the “Melting temperatures (Tm)” value ([2]; Table 21) was 67 °C.
